This is an account of results in article PMC4336329 (PLoS ONE, 2015).

Each structure is given as a SMILES string. Out of some 310,000 compounds screened, about 14,000 (4.5%) showed an effect of 50% or more. Effects have a minus sign here. This is one part of the list.
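Note: peak tail current of the secondary pulse compared with the same well before compound.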

This assay deals with human ether-à-go-go-related gene (hERG) potassium channel (human, UniProt Q12809). The assay is described as follows: primary screen, population patch clamp on CHO cells stably expressing hERG. On the procedure: Briefly, Chinese hamster ovary (CHO) cells stably expressing the hERG channel were dislodged from tissue culture flasks and dispensed into PPC plates. […] During the recording, background leak currents were estimated by a 100 ms step to -80 mV from an initial holding potential of -70 mV and subtracted from the subsequent current measurement. The campaign was conducted in two phases using slight differences in recording protocol. In the first phase, the initial voltage pulse used a 100 ms step to -30 mV from a holding potential of -70 mV, a 2 s conditioning step to +25 mV, and a 2 s test step to -30 mV. During the second phase of the screen, the potential during the conditioning step was raised to +45 mV. In both phases of the campaign, a secondary voltage pulse was applied using the same parameters as the second phase initial pulse. The initial and secondary pulses were applied in the absence of compound, and upon application of 1 μM and 10 μM test concentrations. […]
Chain of human ether-à-go-go-related gene (hERG) potassium channel (Q12809 whole entry, looked up): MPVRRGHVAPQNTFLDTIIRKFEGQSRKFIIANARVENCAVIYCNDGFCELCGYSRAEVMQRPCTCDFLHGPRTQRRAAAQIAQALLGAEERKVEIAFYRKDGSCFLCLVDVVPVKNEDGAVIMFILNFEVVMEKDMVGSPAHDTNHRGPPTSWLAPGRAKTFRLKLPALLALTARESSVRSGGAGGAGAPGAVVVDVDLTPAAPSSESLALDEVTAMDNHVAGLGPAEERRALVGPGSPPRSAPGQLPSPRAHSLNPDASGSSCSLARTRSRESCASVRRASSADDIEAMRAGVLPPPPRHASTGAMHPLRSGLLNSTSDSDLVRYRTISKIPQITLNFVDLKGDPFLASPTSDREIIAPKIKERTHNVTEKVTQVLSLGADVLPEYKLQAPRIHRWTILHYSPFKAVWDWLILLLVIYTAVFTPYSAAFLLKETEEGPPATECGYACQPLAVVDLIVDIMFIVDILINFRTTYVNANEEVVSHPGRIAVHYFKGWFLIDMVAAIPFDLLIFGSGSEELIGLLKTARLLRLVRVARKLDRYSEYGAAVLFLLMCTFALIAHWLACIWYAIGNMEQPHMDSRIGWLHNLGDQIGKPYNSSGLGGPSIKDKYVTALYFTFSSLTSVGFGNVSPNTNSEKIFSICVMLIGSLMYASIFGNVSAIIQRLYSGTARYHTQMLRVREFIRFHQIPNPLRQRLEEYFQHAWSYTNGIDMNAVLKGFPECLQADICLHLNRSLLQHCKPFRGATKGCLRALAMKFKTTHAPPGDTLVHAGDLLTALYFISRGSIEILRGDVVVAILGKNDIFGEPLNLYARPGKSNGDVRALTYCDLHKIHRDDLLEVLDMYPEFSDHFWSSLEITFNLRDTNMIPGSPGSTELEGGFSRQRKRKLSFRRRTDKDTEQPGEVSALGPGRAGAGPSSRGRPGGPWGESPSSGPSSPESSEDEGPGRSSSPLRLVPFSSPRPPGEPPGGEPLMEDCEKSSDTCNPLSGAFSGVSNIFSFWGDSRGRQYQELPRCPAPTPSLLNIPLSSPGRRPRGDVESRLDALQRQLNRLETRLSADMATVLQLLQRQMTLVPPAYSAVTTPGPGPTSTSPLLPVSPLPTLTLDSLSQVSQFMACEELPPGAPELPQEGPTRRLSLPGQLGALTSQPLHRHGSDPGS
As to `Cc1ccc2oc(C(=O)N3CCN(C)C[C@@H]3C(C)C)c(C)c2c1`, the “hERG current change (%, negative = inhibition) at 10uM” value was 2.17%.
Take `CO/N=C(\CCC(=O)O)c1cccs1`: the “hERG current change (%, negative = inhibition) at 10uM” value is on record as -1.9%.
Under `Oc1ccc(/C=N\Nc2nncc(-c3ccccc3)n2)cc1` stands 2.75%.
In the case of `O=C(NCc1ccccc1Cl)c1cnccn1` it was 9.67%; in that of `O=C(CSCc1ccccc1Br)N/N=C/c1ccc2c(c1)OCO2`, -5.35%.
As to `Cc1nn(Cc2ccccc2)c(C)c1C(=O)OCC(=O)c1cc(C)n(C2CC2)c1C`, the “hERG current change (%, negative = inhibition) at 10uM” value is -10.2%.
As to `Cc1cc(C)n(CCCNC(=O)c2ccc(C)c(S(=O)(=O)N3CCOCC3)c2)n1`, the “hERG current change (%, negative = inhibition) at 10uM” value turned out to be 2.96%.
In the case of `COc1ccc(-c2nnc(SCc3ccc(C(=O)O)cc3)n2C)cc1OC`, the “hERG current change (%, negative = inhibition) at 10uM” value is 7.65%.
For `COc1ccc([N+](=O)[O-])cc1NC(=O)C(C)N(C)Cc1ccc(Br)cc1` (centres unmarked), the “hERG current change (%, negative = inhibition) at 10uM” value is on record as -3.1%.
For the compound `COc1cccc(C2NC(=O)NC(C)=C2C(=O)Nc2cc(OC)ccc2OC)c1` (centres unmarked), the “hERG current change (%, negative = inhibition) at 10uM” value is -5.53%.
`CS(=O)(=O)Nc1ccc(C2=NN(C(=O)c3ccco3)C(c3ccco3)C2)cc1` (centres unmarked): the “hERG current change (%, negative = inhibition) at 10uM” value is recorded as -72.3%.
Take `CCOC(=O)c1ccc(NC(=O)COC(=O)Cc2csc(-c3ccccc3)n2)cc1`: the “hERG current change (%, negative = inhibition) at 10uM” value is reported as 9.08%.
Under `O=C1Nc2ccc(Cl)cc2[C@@](C#CC2CC2)(C(F)(F)F)O1` stands 13.9%.
For `CCN1C(=O)CSC1=NC12CC3CC(CC(C3)C1)C2`, the “hERG current change (%, negative = inhibition) at 10uM” value is listed as 2.7%.
Under `COc1ccc(CC(NC(C)=O)C(=O)NC2CCN(C(=O)c3ccc(OC)c(OC)c3)CC2)cc1OC` (centres unmarked) stands 9.8%; under `Cc1cc2cc(CNC(=O)CCC(=O)O)ccc2[nH]1`, -8.3%; under `CCCCN1CC2=C(C1=O)C(c1ccc(O)cc1)NC(=O)N2C` (centres unmarked), -2.81%.
On to `Cc1cccc(C)c1NC(=O)CNC(=O)c1cncc(Br)c1`, for which the “hERG current change (%, negative = inhibition) at 10uM” value was 27%.
With `CCCc1nnc(NC(=O)c2nc(S(=O)(=O)Cc3cccc(C)c3)ncc2Cl)s1`, the “hERG current change (%, negative = inhibition) at 10uM” value stood at 8.01%.
For `CCOc1ccc(NC(=O)CN(C)C(=O)c2c(C)noc2C)cc1OCC`, the “hERG current change (%, negative = inhibition) at 10uM” value worked out at 11%.
As for `COC(=O)[C@@H]1CCCN1Cc1c(C(=O)N2CCCCC2)nc2c(C)cccn12`, the “hERG current change (%, negative = inhibition) at 10uM” value is on record as -29.7%.
Turning to `Cc1cccc(NC(=O)Cn2c(=O)n(C)c3ccccc32)c1`, the “hERG current change (%, negative = inhibition) at 10uM” value was found to be 13.8%.
Turning to `CN(C)CCN1C(=O)C(=O)/C(=C(/O)c2ccccc2)C1c1ccccc1F` (centres unmarked), the “hERG current change (%, negative = inhibition) at 10uM” value is 1.74%.
As to `O=S(=O)(NC1CCCCC1N1CCN(c2ccccc2F)CC1)c1ccccc1` (centres unmarked), the “hERG current change (%, negative = inhibition) at 10uM” value is -6.84%.
Under `CCCCCN(C(=O)COC(=O)CSc1ccc([N+](=O)[O-])cc1)c1c(N)n(CCCC)c(=O)[nH]c1=O` stands -40.5%; under `CC1(C)CC(=O)C=C(NCC(=O)O)C1`, -0.925%; under `CC1CCCCC1NC(=O)CCNC(=O)N1CC(=O)Nc2ccccc21` (centres unmarked), 10.5%.
For the compound `C/C(=N\NC(=O)CNc1cccc(C(F)(F)F)c1)c1cccs1`, the “hERG current change (%, negative = inhibition) at 10uM” value was determined as 17.5%.
In the case of `CC(=O)c1ccc(OC(=O)Cc2cccc3ccccc23)cc1`, the “hERG current change (%, negative = inhibition) at 10uM” value turned out to be 3.13%.
As for `COc1ccccc1NC(=O)C(=O)/C=C(\O)c1ccccc1`, the “hERG current change (%, negative = inhibition) at 10uM” value is recorded as 8.17%.
Turning to `Cc1ccccc1CNC(=O)C1CCC(=O)N(C2CC2)C1` (centres unmarked), the “hERG current change (%, negative = inhibition) at 10uM” value is given as 15.5%.
For `COc1ccc(C(=O)CN2C(=O)NC(C)(c3ccc(C)cc3)C2=O)cc1OC` (centres unmarked), the “hERG current change (%, negative = inhibition) at 10uM” value is 4.3%.
Turning to `COc1ccc(Br)cc1/C=N/NC(=O)c1nc(-c2ccccc2)n2c1CCCCC2`, the “hERG current change (%, negative = inhibition) at 10uM” value was determined as 10.2%.
Consider `CC1CCc2sc(C(=O)Nc3ccc(N4CCOCC4)cc3)cc2C1` (centres unmarked), for which the “hERG current change (%, negative = inhibition) at 10uM” value amounted to 11.6%.
Turning to `Cc1[nH]c2ccccc2c1C(=O)C(=O)NCCc1c[nH]c2ccccc12`, the “hERG current change (%, negative = inhibition) at 10uM” value worked out at 3.82%.
On to `O=C(Cn1cnc2c(cnn2-c2ccccc2)c1=O)NCCc1ccccc1`, for which the “hERG current change (%, negative = inhibition) at 10uM” value turned out to be 5.77%.
Under `Cc1cc(-n2c(C)cc(C(=O)CSc3nncn3C(C)C)c2C)no1` stands 9.21%; under `CC(C)N1CSC(=S)N(Cc2ccccc2)C1`, 22.4%; under `COc1cccc(-c2ccc(NC(=O)C3CCCN(Cc4cnc(N(C)C)s4)C3)cc2)c1` (centres unmarked), 8.97%.
As to `Nc1cc(-c2ccccc2)n2c(n1)nc1ccccc12`, the “hERG current change (%, negative = inhibition) at 10uM” value is given as -22.6%.
On to `Cc1ccccc1NC(=O)c1nc[nH]c1C(=O)NCc1ccccc1`, for which the “hERG current change (%, negative = inhibition) at 10uM” value is reported as -15.2%.
Take `C/C(=N\S(=O)(=O)c1ccc(C)cc1)N1CCCCC1`: the “hERG current change (%, negative = inhibition) at 10uM” value is given as 12.8%.
On to `O=C(CCc1ccccc1)NNC(=O)CCc1ccccc1`, for which the “hERG current change (%, negative = inhibition) at 10uM” value came to 12.7%.
Take `Nn1c(SCc2ccccc2)nc2ccccc21`: the “hERG current change (%, negative = inhibition) at 10uM” value is -6.9%.
